Source: the supplement of paper PMC8728848
This is one part of the list.

Columns and labels:
Experiment in all cases: glycan array binding signal (z-score within array); higher = stronger binding
Conditions in all cases: glycan notation: IUPAC condensed, linker removed
Gal6S(b1-4)Glc6S = biological target: Gal6S(b1-4)Glc6S
In short: (§1)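 The binding signal is a Z-score computed within each array and averaged over linkers. Arrays of the same protein sequence at different concentrations or buffers were also averaged together. Data originate from 3228 arrays in the Consortium for Functional Glycomics database, kept only where the protein sequence was available.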

Gal6S(b1-4)GlcNAc = biological target: Gal6S(b1-4)GlcNAc
In short: as §1

Gal6S(b1-4)GlcNAc6S = biological target: Gal6S(b1-4)GlcNAc6S
In short: as §1

GalNAc(a1-3)Gal = biological target: GalNAc(a1-3)Gal
In short: as §1

GalNAc(a1-3)GalNAc = biological target: GalNAc(a1-3)GalNAc
In short: as §1

[1] = biological target: GalNAc(a1-3)GalNAc(b1-3)Gal(a1-4)Gal(b1-4)Glc
In short: as §1

[2] = biological target: GalNAc(a1-3)GalNAc(b1-3)Gal(a1-4)Gal(b1-4)GlcNAc
In short: as §1

GalNAc(b1-3)Gal = biological target: GalNAc(b1-3)Gal
In short: as §1

[3] = biological target: GalNAc(b1-3)Gal(a1-4)Gal(b1-4)GlcNAc
In short: as §1

[4] = biological target: GalNAc(b1-3)Gal(a1-4)Gal(b1-4)GlcNAc(b1-3)Gal(b1-4)Glc
In short: as §1

[5] = biological target: GalNAc(b1-3)Gal(a1-6)Gal(b1-4)Glc
In short: as §1

GalNAc(b1-3)GalNAc = biological target: GalNAc(b1-3)GalNAc
In short: as §1

GalNAc(b1-4)Gal(b1-4)Glc = biological target: GalNAc(b1-4)Gal(b1-4)Glc
In short: as §1

GalNAc(b1-4)GlcNAc = biological target: GalNAc(b1-4)GlcNAc
In short: as §1

[6] = biological target: GalNAc(b1-4)GlcNAc(b1-2)Man(a1-3)[GalNAc(b1-4)GlcNAc(b1-2)Man(a1-6)]Man(b1-4)GlcNAc(b1-4)GlcNAc
In short: as §1

GalNAc(b1-6)GalNAc = biological target: GalNAc(b1-6)GalNAc
In short: as §1

Glc(a1-4)Glc = biological target: Glc(a1-4)Glc
In short: as §1

[7] = biological target: Glc(a1-4)Glc(a1-4)Glc(a1-4)Glc
In short: as §1

Glc(a1-6)Glc(a1-6)Glc = biological target: Glc(a1-6)Glc(a1-6)Glc
In short: as §1

[8] = biological target: Glc(a1-6)Glc(a1-6)Glc(a1-6)Glc
In short: as §1

Glc(b1-4)Glc = biological target: Glc(b1-4)Glc
In short: as §1

Glc(b1-6)Glc = biological target: Glc(b1-6)Glc
In short: as §1

GlcA(b1-3)Gal = biological target: GlcA(b1-3)Gal
In short: as §1

GlcA(b1-3)GlcNAc = biological target: GlcA(b1-3)GlcNAc
In short: as §1

GlcA(b1-6)Gal = biological target: GlcA(b1-6)Gal
In short: as §1

[9] = biological target: GlcNAc(a1-3)Gal(b1-4)GlcNAc
In short: as §1

[10] = biological target: GlcNAc(a1-4)Gal(b1-3)GlcNAc
In short: as §1

[11] = biological target: GlcNAc(a1-4)Gal(b1-4)GalNAc
In short: as §1

[12] = biological target: GlcNAc(a1-4)Gal(b1-4)GlcNAc
In short: as §1

[13] = biological target: GlcNAc(a1-4)Gal(b1-4)GlcNAc(b1-3)Gal(b1-4)Glc
In short: as §1

[14] = biological target: GlcNAc(a1-4)Gal(b1-4)GlcNAc(b1-3)Gal(b1-4)GlcNAc
In short: as §1

[15] = biological target: GlcNAc(a1-4)Gal(b1-4)GlcNAc(b1-3)Gal(b1-4)GlcNAc(b1-3)Gal(b1-4)GlcNAc
In short: as §1

[16] = biological target: GlcNAc(a1-4)Gal(b1-4)GlcNAc(b1-3)Gal(b1-4)[Fuc(a1-3)]GlcNAc(b1-3)Gal(b1-4)[Fuc(a1-3)]GlcNAc
In short: as §1

[17] = biological target: GlcNAc(a1-6)Gal(b1-4)GlcNAc
In short: as §1

[18] = biological target: GlcNAc(b1-2)Gal(b1-3)GalNAc
In short: as §1

[19] = biological target: GlcNAc(b1-2)Man(a1-3)[GlcNAc(b1-2)Man(a1-6)]Man(b1-4)GlcNAc(b1-4)GlcNAc
In short: as §1

[20] = biological target: GlcNAc(b1-2)Man(a1-3)[GlcNAc(b1-2)Man(a1-6)]Man(b1-4)GlcNAc(b1-4)[Fuc(a1-6)]GlcNAc
In short: as §1

B1: Gal 9 (Canis lupus) (protein)
chain: MAFSSSQPPYLSPGVPFSGKIQGGLQDGLKITINGTILYCNGTRFAVNFHSGHSDSDIAFHFNPRFEEGGYVVCNTKQKGSWGSEERKMQMPFQMGNPFELCFMVNSCDFKVTVNGSHFTQYSHRVPFHYVDTLSITGAVQLSYISFQSPGVWQSSSAPITQTVIHTVQTTPGQPFPNPIIPPTAYPTPTYPMPFFTSIPGGLYPSKSIIVSGTVLPGAKRFHINLRSGNDIAFHLNPRFNENTVVRNMQINNSWGSEERSLPRKMPFVQGQSFSVWIMCEGHCFKVAVDGEHLFEYYHRLKNLLAINNMEVAGDVQLTHVQT
Gal6S(b1-4)Glc6S
  glycan array binding signal (z-score): -0.339
Gal6S(b1-4)GlcNAc
  glycan array binding signal (z-score): -0.331
Gal6S(b1-4)GlcNAc6S
  glycan array binding signal (z-score): -0.337
GalNAc(a1-3)Gal
  glycan array binding signal (z-score): -0.328
GalNAc(a1-3)GalNAc
  glycan array binding signal (z-score): -0.333
[1]
  glycan array binding signal (z-score): 2.63
[2]
  glycan array binding signal (z-score): 3.04
GalNAc(b1-3)Gal
  glycan array binding signal (z-score): 0.389
[3]
  glycan array binding signal (z-score): -0.027
[4]
  glycan array binding signal (z-score): 0.067
[5]
  glycan array binding signal (z-score): -0.038
GalNAc(b1-3)GalNAc
  glycan array binding signal (z-score): -0.32
GalNAc(b1-4)Gal(b1-4)Glc
  glycan array binding signal (z-score): -0.343
GalNAc(b1-4)GlcNAc
  glycan array binding signal (z-score): -0.203
[6]
  glycan array binding signal (z-score): -0.174
GalNAc(b1-6)GalNAc
  glycan array binding signal (z-score): -0.309
Glc(a1-4)Glc
  glycan array binding signal (z-score): -0.327
[7]
  glycan array binding signal (z-score): -0.332
Glc(a1-6)Glc(a1-6)Glc
  glycan array binding signal (z-score): -0.357
[8]
  glycan array binding signal (z-score): -0.32
Glc(b1-4)Glc
  glycan array binding signal (z-score): -0.311
Glc(b1-6)Glc
  glycan array binding signal (z-score): -0.341
GlcA(b1-3)Gal
  glycan array binding signal (z-score): -0.332
GlcA(b1-3)GlcNAc
  glycan array binding signal (z-score): -0.341
GlcA(b1-6)Gal
  glycan array binding signal (z-score): -0.32
[9]
  glycan array binding signal (z-score): -0.032
[10]
  glycan array binding signal (z-score): -0.325
[11]
  glycan array binding signal (z-score): -0.304
[12]
  glycan array binding signal (z-score): -0.312
[13]
  glycan array binding signal (z-score): 0.304
[14]
  glycan array binding signal (z-score): 0.064
[15]
  glycan array binding signal (z-score): 0.084
[16]
  glycan array binding signal (z-score): -0.287
[17]
  glycan array binding signal (z-score): -0.354
[18]
  glycan array binding signal (z-score): -0.336
[19]
  glycan array binding signal (z-score): -0.332
[20]
  glycan array binding signal (z-score): -0.293
